{
  "source": "the supplement of paper PMC8728848",
  "binders": {"B1": {"name": "CFEM-PPm (Pichia pastoris), F2QPV1 (protein)", "chain": "AVATPPACLLACAAEVVKESSDCDALNNIQCICENEGSAIHACLESTCPDGLSSTALQSFEDVCE"}},
  "assay_in_all_cases": "glycan array binding signal (z-score within array); higher = stronger binding",
  "conditions_in_all_cases": "glycan notation: IUPAC condensed, linker removed",
  "key": {"Gal6S(b1-4)Glc": {"target": "Gal6S(b1-4)Glc", "procedure,_shortened": "(§1)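 From the Consortium for Functional Glycomics database, 3228 arrays were curated, keeping only those whose protein sequence was available. Binding is given as a within-array Z-score averaged across arrays sharing a protein sequence and across linkers. Negative Z-scores can be read as non-binding.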"}, "Gal6S(b1-4)Glc6S": {"target": "Gal6S(b1-4)Glc6S", "procedure,_shortened": "as §1"}, "Gal6S(b1-4)GlcNAc": {"target": "Gal6S(b1-4)GlcNAc", "procedure,_shortened": "as §1"}, "Gal6S(b1-4)GlcNAc6S": {"target": "Gal6S(b1-4)GlcNAc6S", "procedure,_shortened": "as §1"}, "GalNAc(a1-3)Gal": {"target": "GalNAc(a1-3)Gal", "procedure,_shortened": "as §1"}, "GalNAc(a1-3)GalNAc": {"target": "GalNAc(a1-3)GalNAc", "procedure,_shortened": "as §1"}, "[1]": {"target": "GalNAc(a1-3)GalNAc(b1-3)Gal(a1-4)Gal(b1-4)Glc", "procedure,_shortened": "as §1"}, "[2]": {"target": "GalNAc(a1-3)GalNAc(b1-3)Gal(a1-4)Gal(b1-4)GlcNAc", "procedure,_shortened": "as §1"}, "GalNAc(b1-3)Gal": {"target": "GalNAc(b1-3)Gal", "procedure,_shortened": "as §1"}, "[3]": {"target": "GalNAc(b1-3)Gal(a1-4)Gal(b1-4)GlcNAc", "procedure,_shortened": "as §1"}, "[4]": {"target": "GalNAc(b1-3)Gal(a1-4)Gal(b1-4)GlcNAc(b1-3)Gal(b1-4)Glc", "procedure,_shortened": "as §1"}, "[5]": {"target": "GalNAc(b1-3)Gal(a1-6)Gal(b1-4)Glc", "procedure,_shortened": "as §1"}, "GalNAc(b1-3)GalNAc": {"target": "GalNAc(b1-3)GalNAc", "procedure,_shortened": "as §1"}, "GalNAc(b1-3)GlcNAc": {"target": "GalNAc(b1-3)GlcNAc", "procedure,_shortened": "as §1"}, "GalNAc(b1-4)Gal(b1-4)Glc": {"target": "GalNAc(b1-4)Gal(b1-4)Glc", "procedure,_shortened": "as §1"}, "GalNAc(b1-4)GlcNAc": {"target": "GalNAc(b1-4)GlcNAc", "procedure,_shortened": "as §1"}, "[6]": {"target": "GalNAc(b1-4)GlcNAc(b1-2)Man", "procedure,_shortened": "as §1"}, "[7]": {"target": "GalNAc(b1-4)GlcNAc(b1-2)Man(a1-3)[GalNAc(b1-4)GlcNAc(b1-2)Man(a1-6)]Man(b1-4)GlcNAc(b1-4)GlcNAc", "procedure,_shortened": "as §1"}, "[8]": {"target": "GalNAc(b1-4)GlcNAc(b1-3)GalNAc(b1-4)GlcNAc", "procedure,_shortened": "as §1"}, "GalNAc(b1-4)GlcNAc6S": {"target": "GalNAc(b1-4)GlcNAc6S", "procedure,_shortened": "as §1"}, "GalNAc(b1-6)GalNAc": {"target": "GalNAc(b1-6)GalNAc", "procedure,_shortened": "as §1"}, "GalNAc3S(b1-4)GlcNAc": {"target": "GalNAc3S(b1-4)GlcNAc", "procedure,_shortened": "as §1"}, "GalNAc3S(b1-4)GlcNAc3S": {"target": "GalNAc3S(b1-4)GlcNAc3S", "procedure,_shortened": "as §1"}, "[9]": {"target": "GalNAc3S(b1-4)[Fuc(a1-3)]GlcNAc", "procedure,_shortened": "as §1"}, "GalNAc4S6S(b1-4)GlcNAc": {"target": "GalNAc4S6S(b1-4)GlcNAc", "procedure,_shortened": "as §1"}, "GalNAc6S(b1-4)GlcNAc": {"target": "GalNAc6S(b1-4)GlcNAc", "procedure,_shortened": "as §1"}, "Glc(a1-4)Glc": {"target": "Glc(a1-4)Glc", "procedure,_shortened": "as §1"}, "[10]": {"target": "Glc(a1-4)Glc(a1-4)Glc(a1-4)Glc", "procedure,_shortened": "as §1"}, "Glc(a1-6)Glc(a1-6)Glc": {"target": "Glc(a1-6)Glc(a1-6)Glc", "procedure,_shortened": "as §1"}, "[11]": {"target": "Glc(a1-6)Glc(a1-6)Glc(a1-6)Glc", "procedure,_shortened": "as §1"}, "Glc(b1-4)Glc": {"target": "Glc(b1-4)Glc", "procedure,_shortened": "as §1"}, "Glc(b1-6)Glc": {"target": "Glc(b1-6)Glc", "procedure,_shortened": "as §1"}, "GlcA(b1-3)Gal": {"target": "GlcA(b1-3)Gal", "procedure,_shortened": "as §1"}, "GlcA(b1-3)GlcNAc": {"target": "GlcA(b1-3)GlcNAc", "procedure,_shortened": "as §1"}, "GlcA(b1-6)Gal": {"target": "GlcA(b1-6)Gal", "procedure,_shortened": "as §1"}, "[12]": {"target": "GlcA3S(b1-3)Gal(b1-4)GlcNAc(b1-2)Man", "procedure,_shortened": "as §1"}, "[13]": {"target": "GlcA3S(b1-3)Gal(b1-4)GlcNAc(b1-3)Gal(b1-4)Glc", "procedure,_shortened": "as §1"}, "[14]": {"target": "GlcNAc(a1-3)Gal(b1-4)GlcNAc", "procedure,_shortened": "as §1"}, "[15]": {"target": "GlcNAc(a1-4)Gal(b1-3)GlcNAc", "procedure,_shortened": "as §1"}, "[16]": {"target": "GlcNAc(a1-4)Gal(b1-4)GalNAc", "procedure,_shortened": "as §1"}, "[17]": {"target": "GlcNAc(a1-4)Gal(b1-4)GlcNAc", "procedure,_shortened": "as §1"}, "[18]": {"target": "GlcNAc(a1-4)Gal(b1-4)GlcNAc(b1-3)Gal(b1-4)Glc", "procedure,_shortened": "as §1"}, "[19]": {"target": "GlcNAc(a1-4)Gal(b1-4)GlcNAc(b1-3)Gal(b1-4)GlcNAc", "procedure,_shortened": "as §1"}, "[20]": {"target": "GlcNAc(a1-4)Gal(b1-4)GlcNAc(b1-3)Gal(b1-4)GlcNAc(b1-3)Gal(b1-4)GlcNAc", "procedure,_shortened": "as §1"}, "[21]": {"target": "GlcNAc(a1-4)Gal(b1-4)GlcNAc(b1-3)Gal(b1-4)[Fuc(a1-3)]GlcNAc(b1-3)Gal(b1-4)[Fuc(a1-3)]GlcNAc", "procedure,_shortened": "as §1"}},
  "note": "The list shows a part of the results.",
  "data": [
    {"binder": "B1", "values": [
      {"measurement": "glycan array binding signal (z-score)", "setting": "Gal6S(b1-4)Glc", "value": 0.035},
      {"measurement": "glycan array binding signal (z-score)", "setting": "Gal6S(b1-4)Glc6S", "value": 1.25},
      {"measurement": "glycan array binding signal (z-score)", "setting": "Gal6S(b1-4)GlcNAc", "value": 0.142},
      {"measurement": "glycan array binding signal (z-score)", "setting": "Gal6S(b1-4)GlcNAc6S", "value": 0.301},
      {"measurement": "glycan array binding signal (z-score)", "setting": "GalNAc(a1-3)Gal", "value": -0.297},
      {"measurement": "glycan array binding signal (z-score)", "setting": "GalNAc(a1-3)GalNAc", "value": -0.194},
      {"measurement": "glycan array binding signal (z-score)", "setting": "[1]", "value": -0.31},
      {"measurement": "glycan array binding signal (z-score)", "setting": "[2]", "value": 0.223},
      {"measurement": "glycan array binding signal (z-score)", "setting": "GalNAc(b1-3)Gal", "value": -0.228},
      {"measurement": "glycan array binding signal (z-score)", "setting": "[3]", "value": -0.22},
      {"measurement": "glycan array binding signal (z-score)", "setting": "[4]", "value": -0.285},
      {"measurement": "glycan array binding signal (z-score)", "setting": "[5]", "value": -0.275},
      {"measurement": "glycan array binding signal (z-score)", "setting": "GalNAc(b1-3)GalNAc", "value": -0.227},
      {"measurement": "glycan array binding signal (z-score)", "setting": "GalNAc(b1-3)GlcNAc", "value": -0.071},
      {"measurement": "glycan array binding signal (z-score)", "setting": "GalNAc(b1-4)Gal(b1-4)Glc", "value": -0.165},
      {"measurement": "glycan array binding signal (z-score)", "setting": "GalNAc(b1-4)GlcNAc", "value": -0.159},
      {"measurement": "glycan array binding signal (z-score)", "setting": "[6]", "value": -0.238},
      {"measurement": "glycan array binding signal (z-score)", "setting": "[7]", "value": 0.149},
      {"measurement": "glycan array binding signal (z-score)", "setting": "[8]", "value": -0.226},
      {"measurement": "glycan array binding signal (z-score)", "setting": "GalNAc(b1-4)GlcNAc6S", "value": -0.05},
      {"measurement": "glycan array binding signal (z-score)", "setting": "GalNAc(b1-6)GalNAc", "value": -0.223},
      {"measurement": "glycan array binding signal (z-score)", "setting": "GalNAc3S(b1-4)GlcNAc", "value": -0.433},
      {"measurement": "glycan array binding signal (z-score)", "setting": "GalNAc3S(b1-4)GlcNAc3S", "value": -0.287},
      {"measurement": "glycan array binding signal (z-score)", "setting": "[9]", "value": -0.176},
      {"measurement": "glycan array binding signal (z-score)", "setting": "GalNAc4S6S(b1-4)GlcNAc", "value": -0.188},
      {"measurement": "glycan array binding signal (z-score)", "setting": "GalNAc6S(b1-4)GlcNAc", "value": -0.284},
      {"measurement": "glycan array binding signal (z-score)", "setting": "Glc(a1-4)Glc", "value": -0.152},
      {"measurement": "glycan array binding signal (z-score)", "setting": "[10]", "value": -0.244},
      {"measurement": "glycan array binding signal (z-score)", "setting": "Glc(a1-6)Glc(a1-6)Glc", "value": -0.164},
      {"measurement": "glycan array binding signal (z-score)", "setting": "[11]", "value": -0.404},
      {"measurement": "glycan array binding signal (z-score)", "setting": "Glc(b1-4)Glc", "value": 0.294},
      {"measurement": "glycan array binding signal (z-score)", "setting": "Glc(b1-6)Glc", "value": -0.146},
      {"measurement": "glycan array binding signal (z-score)", "setting": "GlcA(b1-3)Gal", "value": -0.173},
      {"measurement": "glycan array binding signal (z-score)", "setting": "GlcA(b1-3)GlcNAc", "value": -0.094},
      {"measurement": "glycan array binding signal (z-score)", "setting": "GlcA(b1-6)Gal", "value": 2.41},
      {"measurement": "glycan array binding signal (z-score)", "setting": "[12]", "value": -0.366},
      {"measurement": "glycan array binding signal (z-score)", "setting": "[13]", "value": -0.062},
      {"measurement": "glycan array binding signal (z-score)", "setting": "[14]", "value": -0.343},
      {"measurement": "glycan array binding signal (z-score)", "setting": "[15]", "value": -0.43},
      {"measurement": "glycan array binding signal (z-score)", "setting": "[16]", "value": 0.089},
      {"measurement": "glycan array binding signal (z-score)", "setting": "[17]", "value": -0.205},
      {"measurement": "glycan array binding signal (z-score)", "setting": "[18]", "value": -0.355},
      {"measurement": "glycan array binding signal (z-score)", "setting": "[19]", "value": -0.143},
      {"measurement": "glycan array binding signal (z-score)", "setting": "[20]", "value": -0.247},
      {"measurement": "glycan array binding signal (z-score)", "setting": "[21]", "value": 0.146}
    ]}
  ]
}
